{"source": "PubChem BioAssay (Tox21)", "key": {"[1]": {"assay": "qHTS RealTime-Glo MT Cell Viability Assay in HEK293 cells - 40 hour (AID 1224874); further: nearly all actives have a fitted effect of over 50% in size; further: potency means the concentration at half of the fitted maximal effect; tags describe the fitted curve by direction and shape; on max response: on the % scale 0 is the no-effect control and ±100 the full control effect", "settings": "RealTime-Glo luminescence; max response: stronger effect = lower value", "procedure,_shortened": "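Tox21 screen in HEK293 using RealTime-Glo MT chemistry, with cells and reagent co-dispensed. Luminescence proportional to viable cell number was captured at intervals during 40 h compound exposure at 37 C.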"}, "[2]": {"assay": "A CellTox Green Cytotoxicity Assay to monitor cytotoxicity in HepG2 cells - 16 hour (AID 1224876); further: potency means the concentration at half of the fitted maximal effect; nearly all actives have a fitted effect of over 45% in size; tags describe the fitted curve by direction and shape", "procedure,_shortened": "(§1)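 Nonlytic assay: viable cells exclude the dye, so fluorescence scales with cell death. HepG2 at 600 cells/well, compounds added after 5 h, signal read across 40 h.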"}, "[3]": {"assay": "A CellTox Green Cytotoxicity Assay to monitor cytotoxicity in HepG2 cells - 24 hour (AID 1224878)", "procedure,_shortened": "as §1"}, "[4]": {"assay": "A CellTox Green Cytotoxicity Assay to monitor cytotoxicity in HEK293 cells - 24 hour (AID 1224875)", "procedure,_shortened": "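Seeding of HEK293 cells together with cytotoxicity dye preceded a 5 h incubation at 37 C/5% CO2. Test compounds in DMSO were then added and fluorescence monitored across 40 h.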"}, "[5]": {"assay": "A CellTox Green Cytotoxicity Assay to monitor cytotoxicity in HepG2 cells - 40 hour (AID 1224879)", "procedure,_shortened": "as §1"}}, "note": "“And” between values parts separate entries of the source, which are not always exact repeats. Identical values can stand only once. The inconclusive results got no clear call from the source; some entries with a clear call stand among them for comparison. Potencies of inconclusive entries are left out as doubtful fits. The source made the active and inactive calls. The call rests on the fitted dose curve; in most records, active means well fitted curve in the direction sought with a large enough effect in the repeat runs; inconclusive means weak or mixed curves; inactive means no such curve, though single readings can be large; an effect the other way counts as inactive or inconclusive."}
{"compound": "CN(C)CCOC(c1ccccc1)c1ccc(Br)cc1", "note": "(stereo unspecified); on Cytotoxicity: on the % scale 0 is the no-effect control and ±100 the full control effect; on activity change: nearly all actives have a fitted effect of over 45% in size; on activity change: series mostly up to about 77 µM; on the % scale 0 is the no-effect control and ±100 the full control effect", "values": [{"measurement": "Potency", "setting": "[1]", "result": "inconclusive [cytotoxic, single point]"}, {"measurement": "Potency", "setting": "[2]", "result": "inconclusive [activator, partial curve]"}, {"measurement": "Potency", "setting": "[3]", "result": "active: 23.9 µM"}]}
{"compound": "CO[C@@H]1COCC[C@@H]1N[C@@H]1CC[C@@](C(=O)N2CCc3ncc(C(F)(F)F)cc3C2)(C(C)C)C1", "values": [{"measurement": "Potency", "setting": "[4]", "result": "inactive"}]}
{"compound": "Cc1ccc(C=O)s1", "values": [{"measurement": "max response", "setting": "[1]", "result": "inactive: 5.96%"}, {"measurement": "Potency", "setting": "[4]", "result": "active: 43.6 µM"}]}
{"compound": "OC[C@H]1O[C@@H]2O[C@H]3[C@H](O)[C@@H](O)[C@@H](O[C@H]4[C@H](O)[C@@H](O)[C@@H](O[C@H]5[C@H](O)[C@@H](O)[C@@H](O[C@H]6[C@H](O)[C@@H](O)[C@@H](O[C@H]7[C@H](O)[C@@H](O)[C@@H](O[C@H]8[C@H](O)[C@@H](O)[C@@H](O[C@H]1[C@H](O)[C@H]2O)O[C@@H]8CO)O[C@@H]7CO)O[C@@H]6CO)O[C@@H]5CO)O[C@@H]4CO)O[C@@H]3CO", "values": [{"measurement": "Potency", "setting": "[1]", "result": "inconclusive [cytotoxic, partial curve, poor fit]"}]}
{"compound": "Brc1c2ccccc2c(Br)c2ccccc12", "values": [{"measurement": "activity change", "setting": "[4]", "result": "inactive: -0.621% [at 6.97 µM, stronger effect = higher value]"}]}
{"compound": "Fc1ccc(C(c2ccc(F)cc2)N2CCNCC2)cc1", "values": [{"measurement": "Potency", "setting": "[1]", "result": "inconclusive [cytotoxic, partial curve, poor fit]"}, {"measurement": "Potency", "setting": "[2]", "result": "inconclusive [activator, partial curve, poor fit]"}, {"measurement": "Potency", "setting": "[3]", "result": "inconclusive [activator, single point]"}, {"measurement": "Potency", "setting": "[5]", "result": "inconclusive [activator, single point]"}]}
{"compound": "CCCC(=O)O", "values": [{"measurement": "max response", "setting": "[1]", "result": "inactive: 23.6% and inactive: 12.6%"}, {"measurement": "Potency", "setting": "[3]", "result": "inactive"}]}
{"compound": "CN1CCC(=C2c3ccccc3CCc3sccc32)CC1", "values": [{"measurement": "Potency", "setting": "[1]", "result": "inconclusive [cytotoxic, partial curve]"}, {"measurement": "Potency", "setting": "[2]", "result": "inconclusive [activator, single point]"}, {"measurement": "Potency", "setting": "[3]", "result": "active: 23.9 µM"}]}
{"compound": "CO[Si](CCCNc1ccccc1)(OC)OC", "values": [{"measurement": "Potency", "setting": "[4]", "result": "inactive"}]}
{"compound": "CCCCC/C(=C\\c1ccccc1)CO", "values": [{"measurement": "Potency", "setting": "[4]", "result": "active: 48.4 µM"}]}
{"compound": "O=C(O)CNc1ccccc1", "values": [{"measurement": "Potency", "setting": "[4]", "result": "inactive"}]}
{"compound": "CC(C)CCOC(=O)c1ccccc1", "values": [{"measurement": "Potency", "setting": "[4]", "result": "inconclusive [activator, single point]"}]}
{"compound": "COc1c(C)c2c(c(O)c1C/C=C(\\C)CCC(=O)O)C(=O)OC2", "values": [{"measurement": "Potency", "setting": "[1]", "result": "inconclusive [cytotoxic, full curve]"}]}
{"compound": "OCCN(CCO)c1ccccc1", "values": [{"measurement": "Potency", "setting": "[4]", "result": "inactive"}]}
{"compound": "Nc1ccc(Cl)cc1[N+](=O)[O-]", "values": [{"measurement": "Potency", "setting": "[4]", "result": "inactive"}]}
{"compound": "O=Cc1c2ccccc2c(Cl)c2ccccc12", "values": [{"measurement": "Potency", "setting": "[1]", "result": "inconclusive [cytotoxic, partial curve]"}, {"measurement": "Potency", "setting": "[5]", "result": "inactive"}]}
